Some of the results follow.
What follows are molecules tested on S. aureus RN4220 (assay: growth inhibition call (relative growth <= 0.2)). Details: 50 µM.

Growth inhibition call, inactive:
CC(C)C#Cc1cnc2c(c1)C(=O)N([C@@H](C)CO)C[C@@H](C)[C@H](CN(C)S(=O)(=O)c1cn(C)cn1)O2
CCC(=O)C12CC3CC(CC(C3)C1)C2
C[C@@H]1CCCCO[C@H](CN(C)S(=O)(=O)c2cn(C)cn2)[C@@H](C)CN([C@H](C)CO)C(=O)c2cc(NS(C)(=O)=O)ccc2O1
N[C@H]1CC[C@H](CCn2cc(C3CCCCC3)nn2)O[C@@H]1CO
COc1ccc2c3c(n(c2c1)C)[C@H](CO)N(C[C@]13CN(C1)C(=O)C)C(=O)CN1CCOCC1
C[C@@H]1CN([C@@H](C)CO)C(=O)c2cc(Br)cnc2O[C@H]1CN(C)Cc1cccc(C(=O)O)c1
C[C@@H]1CCCCO[C@@H](CN(C)C(=O)c2ccccc2)[C@H](C)CN([C@@H](C)CO)C(=O)c2cc(NC(=O)C3CCCCC3)ccc2O1
O/N=C1\CCCCc2c1[nH]c1ccc(C3CCCCC3)cc21
C[C@@H]1CCCCO[C@@H](CN(C)C(=O)Nc2ccc(C(F)(F)F)cc2)[C@@H](C)CN([C@@H](C)CO)C(=O)c2cc(NC(=O)C3CCCCC3)ccc2O1
CCNC(=O)C[C@@H]1CC[C@@H]2[C@H](COc3ccc(NS(=O)(=O)c4ccccc4C)cc3C(=O)N2C)O1
CN1CCN(C(=O)C[C@H]2CC[C@H]3[C@@H](COC[C@@H](O)CN3Cc3ccc4c(c3)OCO4)O2)CC1
COc1ccc(C(=O)Nc2ccc(CN3C(=O)[C@@]4(O[C@@H](CC(=O)N5Cc6ccccc6C[C@H]5CO)[C@H]([Si](C)(C)c5ccc(OC)cc5)[C@H]4C)c4ccccc43)cc2)cc1
O=C(O)C1CN(C(=O)c2cnccn2)C1
C[C@@H]1CCCCO[C@H](CN(C)Cc2ccc(C(F)(F)F)cc2)[C@@H](C)CN([C@@H](C)CO)C(=O)c2cc(N(C)C)ccc2O1
C[C@H](CO)N1C[C@H](C)[C@H](CN(C)S(C)(=O)=O)Oc2ccc(NS(=O)(=O)c3ccc(Cl)cc3)cc2CC1=O
Cc1cc(C(=O)Nc2cccc3c2O[C@H](CN(C)Cc2ccccc2)[C@H](C)CN([C@H](C)CO)C3=O)n(C)n1
Cc1cc(C(=O)O)n(C)n1
C[C@H]1CN([C@@H](C)CO)C(=O)c2cc(NC(=O)Nc3ccc(F)cc3)ccc2O[C@H]1CN(C)S(=O)(=O)c1cn(C)cn1
C[C@@H]1CN([C@H](C)CO)S(=O)(=O)c2ccc(Br)cc2O[C@@H]1CN(C)C(=O)NC1CCCC1
COCC(=O)N1C[C@H](C)[C@H](OC)CN(C)C(=O)c2ccc(NC(=O)c3ccc(F)cc3)cc2OC[C@@H]1C
C[C@H]1CN([C@@H](C)CO)C(=O)Cc2cc(NS(C)(=O)=O)ccc2O[C@H]1CN(C)C
C[C@@H]1CN([C@H](C)CO)C(=O)c2cc(NS(=O)(=O)c3cccs3)ccc2O[C@@H]1CN(C)S(=O)(=O)c1cn(C)cn1
O=C(C[C@@H]1CC[C@H]2[C@@H](COC[C@H](O)CN2C(=O)c2ccccc2F)O1)N1CCN(c2ccccc2)CC1
O=C(C[C@@H]1C[C@@H]2c3cc(NC(=O)NC4CCCC4)ccc3O[C@@H]2[C@H](CO)O1)NCc1ccc(Oc2ccccc2)cc1
C[C@@H]1CCCCO[C@H](CN(C)Cc2ccc(C(F)(F)F)cc2)[C@@H](C)CN([C@@H](C)CO)C(=O)c2cc(NC(=O)c3ccccc3)ccc2O1
COc1ccc(CN(C)C[C@H]2Oc3ccc(NS(=O)(=O)c4cn(C)cn4)cc3C(=O)N([C@H](C)CO)C[C@@H]2C)cc1
C[C@@H]1CN([C@@H](C)CO)S(=O)(=O)c2ccc(C#Cc3ccncc3)cc2O[C@@H]1CN(C)C(=O)C1CCC1
C[C@@H]1CN([C@@H](C)CO)C(=O)Cc2cc(NC(=O)Cn3cnnn3)ccc2O[C@@H]1CN(C)S(=O)(=O)c1ccccc1
COc1ccc(S(=O)(=O)Nc2ccc3c(c2)C(=O)N([C@@H](C)CO)C[C@@H](C)[C@@H](CN(C)Cc2ccc(C(=O)O)cc2)OCCCC[C@H](C)O3)cc1
C[C@@H]1CCCCO[C@@H](CN(C)C(=O)c2ccccc2)[C@@H](C)CN([C@@H](C)CO)C(=O)c2cc(NC(=O)Nc3ccc4c(c3)OCO4)ccc2O1

From the antibiotic and cytotoxicity screens of Wong et al. (2023)
